From patent US20250179172A1 (HAINAN SIMCERE ZAIMING PHARMACEUTICAL, published 2025)

T1: murine CD5-His (Sino Biologicals, Cat. No. 50403-M08H) (murine, UniProt P13379 24-371)
T1 construct: also called murine CD5 protein; not shown: His tag
T1 sequence (looked up): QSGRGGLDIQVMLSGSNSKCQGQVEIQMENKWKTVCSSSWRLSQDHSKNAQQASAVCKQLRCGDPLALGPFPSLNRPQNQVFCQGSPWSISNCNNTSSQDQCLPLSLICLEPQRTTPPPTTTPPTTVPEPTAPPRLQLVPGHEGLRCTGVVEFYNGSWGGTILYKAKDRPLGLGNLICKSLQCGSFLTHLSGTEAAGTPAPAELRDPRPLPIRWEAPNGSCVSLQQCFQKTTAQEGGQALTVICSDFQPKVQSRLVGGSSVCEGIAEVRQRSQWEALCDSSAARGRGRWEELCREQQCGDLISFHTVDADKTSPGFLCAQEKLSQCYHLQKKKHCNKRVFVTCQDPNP

T2: monkey CD5, full length, on HEK293T cells (monkey)
T2 construct: also called HEK293T-monkey CD5
T2 chain: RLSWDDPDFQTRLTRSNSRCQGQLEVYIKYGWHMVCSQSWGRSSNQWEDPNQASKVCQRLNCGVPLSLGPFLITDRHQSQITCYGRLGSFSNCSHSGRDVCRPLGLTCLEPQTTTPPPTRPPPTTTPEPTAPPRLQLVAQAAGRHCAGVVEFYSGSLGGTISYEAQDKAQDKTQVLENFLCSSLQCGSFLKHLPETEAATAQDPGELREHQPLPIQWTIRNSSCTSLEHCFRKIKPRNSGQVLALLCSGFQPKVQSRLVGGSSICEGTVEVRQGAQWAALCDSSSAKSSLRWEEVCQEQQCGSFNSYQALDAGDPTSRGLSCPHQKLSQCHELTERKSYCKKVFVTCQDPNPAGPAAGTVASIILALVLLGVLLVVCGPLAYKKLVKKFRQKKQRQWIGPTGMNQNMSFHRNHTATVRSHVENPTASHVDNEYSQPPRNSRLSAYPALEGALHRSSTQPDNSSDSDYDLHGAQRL


Columns and labels:
[1] = target: T1, murine CD5-His (Sino Biologicals, Cat. …); assay: ELISA on coated murine CD5-His
Procedure: (§1) The binding activity of the H65 antibody prepared above with human CD5 protein was subjected to ELISA assay. A purchased commercial antigen (human CD5-His) was diluted with PBS to obtain a final concentration of 2 μg/mL, and then added to a 96-well ELISA plate with 100 µL/well. The plate was sealed with a plastic film and incubated at 4° C. over the night, washed twice with PBS in the next day, added with a blocking solution [PBS+2% (w/w) BSA] and blocked at room temperature for 2 h. The blocking solution was drained out, and 100 nM of the H65 antibody or negative control antibody hIgG1 after gradient dilution was added, namely, the obtained product was the antibody Anti-HEL-hIgG1 against hen egg lysozyme (purchased from Biointron, Cat. No. B117901) with 50 μl per well. After incubation for 2 h at 37° C., the plate was washed for 3 times with PBS. A secondary antibody labeled with HRP (horseradish peroxidase) (A0170, purchased from Sigma) was added. After incubation for 2 h at 37° C., the plate was washed for 5 times with PBS. A TMB substrate was added with 50 μL/well and incubated at room temperature for 30 min, then a stop solution (1.0 N HCl) was added with 50 μL/well.
(§2) To assay the species cross-activity of the VHH-hFc, ELISA plates were coated with commercial murine CD5-His (CD5 (Sino Biologicals, Cat. No. 50403-M08H)), and ELISA assays were performed according to the method described in Example 2.2. […] The negative control is hIgG1 and NB145 serves as the positive control (NB145 has been verified to be bound to murine CD5); data in the table are values of OD_{450 nm}.

[2] = target: T2, monkey CD5, full length, on HEK293T …; assay: FACS on HEK293T-monkey CD5 cells
Excerpt: The desired cells were expanded to a logarithmic growth phase in a T-75 cell culture flask. Adherent cells CHO-K1-human CD5 were removed from the culture medium by pipetting, and the cells were washed twice with a PBS buffer, digested with trypsin, and washed twice with a PBS buffer again after the digestion was stopped. For suspension cells Jurkat, the medium supernatant was discarded by direct centrifugation, and the cell pellet was washed twice with PBS. After the cells obtained in the last step were subjected to cell counting, the cell pellet was resuspended to 2×10⁶ cells/mL with a blocking solution [PBS+2% (w/w) BSA] and added to a 96-well FACS reaction plate with 50 μL/well. The VHH-hFc or control antibody was added with 50 μL/well, and the plate was incubated on ice for 2 h. […] After the plate was centrifuged and washed for 5 times with a PBS buffer, the results were assayed and analyzed by FACS (FACS Canto™, purchased from BD Biosciences). Data analysis was performed by software (BD FACSDiva) to obtain the mean fluorescence intensity (MFI) of the cells. Analysis was then performed by software (GraphPad Prism8), data were fitted, and EC₅₀ values were calculated. […] The same method was used to assay the binding reactions of 1 nM and 10 nM VHH-hFc antibodies with Jurkat cells and endogenous CD5-negative Raji cells, and to assay the binding reactions of 1 nM and 10 nM VHH-hFc antibodies with CHO-K1 cells and CHO-K1-human CD5.
HEK293T-monkey CD5 cells were subjected to the FACS assay and data analysis according to the method described in Example 4.2.

[3] = target: T1, murine CD5-His (Sino Biologicals, Cat. …); assay: ELISA on murine CD5-His, antibody 0.10 nM
Procedure: as §1, §2

[4] = target: T1, murine CD5-His (Sino Biologicals, Cat. …); assay: ELISA on murine CD5-His, antibody 1.00 nM
Procedure: as §1, §2

[5] = target: T1, murine CD5-His (Sino Biologicals, Cat. …); assay: ELISA on murine CD5-His, antibody 0.001 nM
Procedure: as §1, §2

[6] = target: T1, murine CD5-His (Sino Biologicals, Cat. …); assay: ELISA on murine CD5-His, antibody 10.00 nM
Procedure: as §1, §2

[7] = target: T1, murine CD5-His (Sino Biologicals, Cat. …); assay: ELISA on murine CD5-His, antibody 100.00 nM
Procedure: as §1, §2

[8] = target: T1, murine CD5-His (Sino Biologicals, Cat. …); assay: ELISA on murine CD5-His, antibody '0.000' nM as printed
Procedure: as §1, §2

Binder | binding result [1] | Max MFI [2] | binding result [2] | OD450 [3] | OD450 [4] | OD450 [5] | OD450 [6] | OD450 [7] | OD450 [8] | EC50 [2]
S005-NB144-7 VHH-hFc (Fc fusion, VHH fused to human IgG1 Fc; no linker stated) EVQVVESGGGLVQAGGSLRLSCAASGSIFSINLLGWYRQAPGKERESVAILSSGGSTYYADSVKGRFTISRDNVKNMLYLQMNSLKPEDTAVYYCNAVGGIATLRDYWGQGTQVTVSS[human IgG1 Fc with changes not printed] | no binding (tested: 100 nM) | 102 MFI | no binding | 0.09 OD450 | 0.09 OD450 | 0.09 OD450 | 0.1 OD450 | 0.12 OD450 | 0.09 OD450 | 
S005-NB144-31 VHH-hFc (Fc fusion, VHH fused to human IgG1 Fc; no linker stated; also called S002-NB144-31) EVQVVESGGGLVQPGGSLRLSCAASGFTLDYYAIGWFRQAPGKEREGLSCISTSGGSTNYADSVKGRFTISRDNAKNTVYLQMNSLKPEDTAVYYCAASSFWDCAVVGTGSPKTGHLESVFGSWGQGTQVTVSS[human IgG1 Fc with changes not printed] | no binding (tested: 100 nM) | 19600 MFI |  | 0.1 OD450 | 0.1 OD450 | 0.1 OD450 | 0.1 OD450 | 0.11 OD450 | 0.09 OD450 | 27 nM
